Assay results from the supplement of paper PMC8728848.
The other results are listed elsewhere or left out.

Assays:
Experiment in all cases: glycan array binding signal (z-score within array); higher = stronger binding
Settings in all cases: glycan notation: IUPAC condensed, linker removed
[1] = biological target: Gal(b1-4)GlcNAc(b1-2)[Gal(b1-4)GlcNAc(b1-6)]Man(a1-6)[GlcNAc(b1-4)][Gal(b1-4)GlcNAc(b1-2)Man(a1-3)]Man(b1-4)GlcNAc(b1-4)GlcNAc
In short: (§1)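 Arrays were curated from the Consortium for Functional Glycomics database, 3228 in total, and kept only where the protein sequence was available. Binding is expressed as a within-array Z-score. This score was averaged across arrays of the same protein sequence at different concentrations or buffers and across linkers, and negative values can be read as non-binding.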

[2] = biological target: Gal(b1-4)GlcNAc(b1-2)[Gal(b1-4)GlcNAc(b1-6)]Man(a1-6)[GlcNAc(b1-4)][Gal(b1-4)GlcNAc(b1-2)[Gal(b1-4)GlcNAc(b1-4)]Man(a1-3)]Man(b1-4)GlcNAc(b1-4)[Fuc(a1-6)]GlcNAc
In short: as §1

[3] = biological target: Gal(b1-4)GlcNAc(b1-3)Gal(b1-3)GalNAc
In short: as §1

[4] = biological target: Gal(b1-4)GlcNAc(b1-3)Gal(b1-3)GlcNAc
In short: as §1

[5] = biological target: Gal(b1-4)GlcNAc(b1-3)Gal(b1-4)Glc
In short: as §1

[6] = biological target: Gal(b1-4)GlcNAc(b1-3)Gal(b1-4)GlcNAc
In short: as §1

[7] = biological target: Gal(b1-4)GlcNAc(b1-3)Gal(b1-4)GlcNAc(b1-2)Man(a1-3)[Gal(b1-4)GlcNAc(b1-3)Gal(b1-4)GlcNAc(b1-2)Man(a1-6)]Man(b1-4)GlcNAc(b1-4)GlcNAc
In short: as §1

[8] = biological target: Gal(b1-4)GlcNAc(b1-3)Gal(b1-4)GlcNAc(b1-2)Man(a1-3)[Gal(b1-4)GlcNAc(b1-3)Gal(b1-4)GlcNAc(b1-2)Man(a1-6)]Man(b1-4)GlcNAc(b1-4)[Fuc(a1-6)]GlcNAc
In short: as §1

[9] = biological target: Gal(b1-4)GlcNAc(b1-3)Gal(b1-4)GlcNAc(b1-2)[Gal(b1-4)GlcNAc(b1-3)Gal(b1-4)GlcNAc(b1-6)]Man(a1-6)[Gal(b1-4)GlcNAc(b1-3)Gal(b1-4)GlcNAc(b1-2)Man(a1-3)]Man(b1-4)GlcNAc(b1-4)GlcNAc
In short: as §1

[10] = biological target: Gal(b1-4)GlcNAc(b1-3)Gal(b1-4)GlcNAc(b1-2)[Gal(b1-4)GlcNAc(b1-3)Gal(b1-4)GlcNAc(b1-6)]Man(a1-6)[Gal(b1-4)GlcNAc(b1-3)Gal(b1-4)GlcNAc(b1-2)Man(a1-3)]Man(b1-4)GlcNAc(b1-4)[Fuc(a1-6)]GlcNAc
In short: as §1

[11] = biological target: Gal(b1-4)GlcNAc(b1-3)Gal(b1-4)GlcNAc(b1-3)Gal(b1-4)GlcNAc
In short: as §1

[12] = biological target: Gal(b1-4)GlcNAc(b1-3)Gal(b1-4)GlcNAc(b1-3)Gal(b1-4)GlcNAc(b1-2)Man(a1-3)[Gal(b1-4)GlcNAc(b1-3)Gal(b1-4)GlcNAc(b1-3)Gal(b1-4)GlcNAc(b1-2)Man(a1-6)]Man(b1-4)GlcNAc(b1-4)GlcNAc
In short: as §1

[13] = biological target: Gal(b1-4)GlcNAc(b1-3)Gal(b1-4)GlcNAc(b1-3)Gal(b1-4)GlcNAc(b1-2)Man(a1-3)[Gal(b1-4)GlcNAc(b1-3)Gal(b1-4)GlcNAc(b1-3)Gal(b1-4)GlcNAc(b1-2)Man(a1-6)]Man(b1-4)GlcNAc(b1-4)[Fuc(a1-6)]GlcNAc
In short: as §1

[14] = biological target: Gal(b1-4)GlcNAc(b1-3)Gal(b1-4)GlcNAc(b1-3)Gal(b1-4)GlcNAc(b1-2)[Gal(b1-4)GlcNAc(b1-3)Gal(b1-4)GlcNAc(b1-3)Gal(b1-4)GlcNAc(b1-6)]Man(a1-6)[Gal(b1-4)GlcNAc(b1-3)Gal(b1-4)GlcNAc(b1-3)Gal(b1-4)GlcNAc(b1-2)Man(a1-3)]Man(b1-4)GlcNAc(b1-4)[Fuc(a1-6)]GlcNAc
In short: as §1

[15] = biological target: Gal(b1-4)GlcNAc(b1-3)Gal(b1-4)GlcNAc(b1-3)Gal(b1-4)GlcNAc(b1-3)Gal(b1-4)GlcNAc(b1-2)Man(a1-3)[Gal(b1-4)GlcNAc(b1-3)Gal(b1-4)GlcNAc(b1-3)Gal(b1-4)GlcNAc(b1-3)Gal(b1-4)GlcNAc(b1-2)Man(a1-6)]Man(b1-4)GlcNAc(b1-4)GlcNAc
In short: as §1

[16] = biological target: Gal(b1-4)GlcNAc(b1-3)Gal(b1-4)GlcNAc(b1-3)Gal(b1-4)GlcNAc(b1-3)Gal(b1-4)GlcNAc(b1-2)Man(a1-3)[Gal(b1-4)GlcNAc(b1-3)Gal(b1-4)GlcNAc(b1-3)Gal(b1-4)GlcNAc(b1-3)Gal(b1-4)GlcNAc(b1-2)Man(a1-6)]Man(b1-4)GlcNAc(b1-4)[Fuc(a1-6)]GlcNAc
In short: as §1

[17] = biological target: Gal(b1-4)GlcNAc(b1-3)Gal(b1-4)GlcNAc(b1-3)Gal(b1-4)GlcNAc(b1-3)Gal(b1-4)GlcNAc(b1-2)[Gal(b1-4)GlcNAc(b1-3)Gal(b1-4)GlcNAc(b1-3)Gal(b1-4)GlcNAc(b1-3)Gal(b1-4)GlcNAc(b1-6)]Man(a1-6)[Gal(b1-4)GlcNAc(b1-3)Gal(b1-4)GlcNAc(b1-3)Gal(b1-4)GlcNAc(b1-3)Gal(b1-4)GlcNAc(b1-2)Man(a1-3)]Man(b1-4)GlcNAc(b1-4)[Fuc(a1-6)]GlcNAc
In short: as §1

[18] = biological target: Gal(b1-4)GlcNAc(b1-3)Gal(b1-4)GlcNAc(b1-3)Gal(b1-4)GlcNAc(b1-3)Gal(b1-4)GlcNAc(b1-3)Gal(b1-4)GlcNAc(b1-2)Man(a1-3)[Gal(b1-4)GlcNAc(b1-3)Gal(b1-4)GlcNAc(b1-3)Gal(b1-4)GlcNAc(b1-3)Gal(b1-4)GlcNAc(b1-3)Gal(b1-4)GlcNAc(b1-2)Man(a1-6)]Man(b1-4)GlcNAc(b1-4)GlcNAc
In short: as §1

[19] = biological target: Gal(b1-4)GlcNAc(b1-3)Gal(b1-4)GlcNAc(b1-3)Gal(b1-4)GlcNAc(b1-3)Gal(b1-4)GlcNAc(b1-3)Gal(b1-4)GlcNAc(b1-2)Man(a1-3)[Gal(b1-4)GlcNAc(b1-3)Gal(b1-4)GlcNAc(b1-3)Gal(b1-4)GlcNAc(b1-3)Gal(b1-4)GlcNAc(b1-3)Gal(b1-4)GlcNAc(b1-2)Man(a1-6)]Man(b1-4)GlcNAc(b1-4)[Fuc(a1-6)]GlcNAc
In short: as §1

[20] = biological target: Gal(b1-4)GlcNAc(b1-3)Gal(b1-4)GlcNAc(b1-3)Gal(b1-4)GlcNAc(b1-3)Gal(b1-4)GlcNAc(b1-3)Gal(b1-4)GlcNAc(b1-2)[Gal(b1-4)GlcNAc(b1-3)Gal(b1-4)GlcNAc(b1-3)Gal(b1-4)GlcNAc(b1-3)Gal(b1-4)GlcNAc(b1-3)Gal(b1-4)GlcNAc(b1-6)]Man(a1-6)[Gal(b1-4)GlcNAc(b1-3)Gal(b1-4)GlcNAc(b1-3)Gal(b1-4)GlcNAc(b1-3)Gal(b1-4)GlcNAc(b1-3)Gal(b1-4)GlcNAc(b1-2)Man(a1-3)]Man(b1-4)GlcNAc(b1-4)[Fuc(a1-6)]GlcNAc
In short: as §1

[21] = biological target: Gal(b1-4)GlcNAc(b1-3)Gal(b1-4)GlcNAc(b1-3)Gal(b1-4)GlcNAc(b1-3)Gal(b1-4)GlcNAc(b1-3)Gal(b1-4)GlcNAc(b1-3)Gal(b1-4)GlcNAc(b1-2)Man(a1-3)[Gal(b1-4)GlcNAc(b1-3)Gal(b1-4)GlcNAc(b1-3)Gal(b1-4)GlcNAc(b1-3)Gal(b1-4)GlcNAc(b1-3)Gal(b1-4)GlcNAc(b1-3)Gal(b1-4)GlcNAc(b1-2)Man(a1-6)]Man(b1-4)GlcNAc(b1-4)GlcNAc
In short: as §1

[22] = biological target: Gal(b1-4)GlcNAc(b1-3)Gal(b1-4)GlcNAc(b1-3)GalNAc
In short: as §1

[23] = biological target: Gal(b1-4)GlcNAc(b1-3)Gal(b1-4)GlcNAc(b1-3)[Gal(b1-4)GlcNAc(b1-3)Gal(b1-4)GlcNAc(b1-6)]GalNAc
In short: as §1

B1: SP15308A-bot-339-19-339 (Bacteroides ovatus) (protein)
chain: ACNNEWEDEQYEQYISFKSPIPAGGEGVTDIYVRYKEDGKVTYRLPIVVSGSTTNTLDREVHIAVDKDTLETLNIERFSIHRPGLWYTALEEDKYDFPKTVHISAGSSVEQLNIDFNLQGIDMLEKWVLPLTIVDDPSYNYKSHPRKNYAKALLRVIPFNNYSGSYTSSAMKVYTYINGKPDTNARTANKRTGYVINDNTVFFYAGLISEDLDKEVREKYKINVHFNEDGTLHMEQGDPTNKMKFELIGTPTYSKTSVMDATRPYLERRYVQIMFEYDFEDFSYGGNGVDVIPIKYKVEGSMTLQRNINTQIPDEDQQIEW
[1]
  glycan array binding signal (z-score): -0.304
[2]
  glycan array binding signal (z-score): -0.757
[3]
  glycan array binding signal (z-score): -0.408
[4]
  glycan array binding signal (z-score): -0.173
[5]
  glycan array binding signal (z-score): 0.226
[6]
  glycan array binding signal (z-score): -0.125
[7]
  glycan array binding signal (z-score): 0.404
[8]
  glycan array binding signal (z-score): -0.278
[9]
  glycan array binding signal (z-score): 0.676
[10]
  glycan array binding signal (z-score): 0.103
[11]
  glycan array binding signal (z-score): 0.071
[12]
  glycan array binding signal (z-score): 0.702
[13]
  glycan array binding signal (z-score): 2.77
[14]
  glycan array binding signal (z-score): -0.333
[15]
  glycan array binding signal (z-score): 0.2
[16]
  glycan array binding signal (z-score): -0.114
[17]
  glycan array binding signal (z-score): 0.091
[18]
  glycan array binding signal (z-score): -0.342
[19]
  glycan array binding signal (z-score): 0.44
[20]
  glycan array binding signal (z-score): 0.968
[21]
  glycan array binding signal (z-score): 0.152
[22]
  glycan array binding signal (z-score): -0.439
[23]
  glycan array binding signal (z-score): 0.116
